Data reported in PubChem BioAssay (NCI).
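Briefly, cells in 96-well plates were exposed to five compound concentrations for 48 h, and endpoints were estimated by linear interpolation. GI50 marks 50% less growth. The concentration for full growth arrest is given as TGI.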

Tested on: NCI-H322M lung
Assay: NCI anticancer screen, dose series, 48 h

Structure (SMILES)	GI50 [µM]	TGI [µM]
COc1ccc(/C(=N\NC(N)=S)c2ccc(Cl)cc2)cc1OC	6.25	24.9
CCO/C=N/C1=C(C#N)C(c2ccc(Cl)cc2)c2sc3c(C)cccc3c2O1 (stereo unspecified)	1.2	23.5
CCCC(=O)NC(c1cccnc1)c1cc(C(C)(C)C)c2cccnc2c1O (stereo unspecified)	6.94	> 100
